The source of these data is the supplement of paper PMC10369915.

To fix the notation:
B1: EIF2S2_Y176 (peptide)
chain: ERDYTYEELLN
B2: EIF3J_Y143 (peptide)
chain: VNNAVYGIDAM
B3: EPHA3_Y561 (peptide)
chain: LTVVIYVLIGR
B4: EP300_Y2219_Q2223P (peptide)
chain: PQGVGYPPQPQ
B5: EIF3K_Y21_I18V (peptide)
chain: KGVDRYNPENL
B6: EPHB2_Y194_R199H (peptide)
chain: AVRVFYRKCPH
B7: EMD_Y59_S54F (peptide)
chain: FAASSYSFSDL
B8: EIF2B5_Y583_I587V_YF (peptide)
chain: INSLKYAFNVS
B9: EMD_Y181 (peptide)
chain: SLDLSYYPTSS
B10: ENG_Y614_YF (peptide)
chain: ALWFIYSHTRS
B11: EIF2B5_Y319_R315H (peptide)
chain: IHRWVYPLTPE
B12: EPHA3_Y570_C568S (peptide)
chain: GRFSGYKSKHG
B13: EIF2S2_Y176_YF (peptide)
chain: ERDFTYEELLN
B14: EML2_Y230 (peptide)
chain: GKSHIYFWTLE
B15: ENTPD3_Y262_R264Q (peptide)
chain: HSFQCYGQNEA
B16: ENO1_Y236_V240M (peptide)
chain: IGKAGYTDKMV
B17: EP300_Y2219_P2221Q (peptide)
chain: PQGVGYPQQQQ
B18: EPHA10_Y959_A956T (peptide)
chain: FATAGYGSLEA
B19: EPHB1_Y740 (peptide)
chain: LAEMNYVHRDL

Some of the results follow. Cut-off read from the data, not from the text of the source: active = 3.2 or more and inactive = the rest. The signal is at background level for most entries.
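Note: displayed peptides selected on beads carrying the immobilized SH2 domain, with library peptides lacking any tyrosine serving as negative controls.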

The first assay has as its target SHP2 C-SH2 domain E139D. Kind of assay: enrichment score (SH2-bound / input frequency) (ratio); bacterial display of known human phosphotyrosine sites (pTyr-Var adds point mutants) read by sequencing; higher = stronger binding; tyrosines were phosphorylated by kinases first. The note with it: peptide library: pTyr-Var.
In the case of B1, the enrichment score is inactive: 0.741.

In the case of B2, the enrichment score is inactive: 0.825.

B3: the enrichment score is inactive: 0.47.

With B4, the enrichment score is inactive: 0.765.

Turning to B5, the enrichment score was inactive: 0.55.

Regarding B6, the enrichment score was inactive: 0.552.

As for B7, the enrichment score is inactive: 1.09.

Regarding B8, the enrichment score is inactive: 1.33.

Consider B9, for which the enrichment score is inactive: 1.07.

Take B10: the enrichment score is inactive: 1.3.

On to B11, for which the enrichment score is inactive: 2.64.

Turning to B12, the enrichment score is inactive: 1.08.

For B13, the enrichment score is inactive: 0.573.

On to B14, for which the enrichment score was inactive: 0.951.

For B15, the enrichment score is inactive: 0.567.

As to B16, the enrichment score is inactive: 0.675.

Take B17: the enrichment score is inactive: 0.462.

In the case of B18, the enrichment score is inactive: 0.743.

Regarding B19, the enrichment score is inactive: 0.615.

A further assay has as its target SHP2 C-SH2 domain wild-type. Described as above. The note with it: peptide library: pTyr-Var.
Take B1: the enrichment score is inactive: 0.652.

In the case of B2, the enrichment score was inactive: 0.697.

Regarding B3, the enrichment score was inactive: 0.443.

Consider B4, for which the enrichment score is inactive: 0.737.

With B5, the enrichment score is inactive: 0.579.

B6: the enrichment score is inactive: 0.311.

B7: the enrichment score is inactive: 0.969.

For B8, the enrichment score is inactive: 0.825.

As for B9, the enrichment score is inactive: 0.933.

Turning to B10, the enrichment score was inactive: 1.5.

For the molecule B11, the enrichment score is inactive: 2.18.

Turning to B12, the enrichment score is inactive: 0.789.

Regarding B13, the enrichment score is inactive: 0.52.

Regarding B14, the enrichment score was inactive: 0.89.

B15: the enrichment score is inactive: 0.756.

In the case of B16, the enrichment score was inactive: 0.801.

As for B17, the enrichment score was inactive: 0.561.

With B18, the enrichment score is inactive: 0.653.

In the case of B19, the enrichment score is inactive: 0.743.

The target of a further assay is SHP2 N-SH2 domain L43F. Described as above. The note with it: peptide library: pTyr-Var.
For the molecule B1, the enrichment score was inactive: 0.668.

As to B2, the enrichment score was inactive: 0.76.

Regarding B3, the enrichment score was inactive: 0.278.

Consider B4, for which the enrichment score is inactive: 0.7.

With B5, the enrichment score was inactive: 0.466.

As to B6, the enrichment score is inactive: 0.446.

B7: the enrichment score is inactive: 1.24.

Take B8: the enrichment score was inactive: 1.02.

Consider B9, for which the enrichment score was inactive: 0.89.

Turning to B10, the enrichment score was inactive: 1.55.

Take B11: the enrichment score is inactive: 2.66.

For the molecule B12, the enrichment score is inactive: 0.672.

As to B13, the enrichment score was inactive: 0.426.

For B14, the enrichment score was inactive: 0.762.

For B15, the enrichment score was inactive: 0.946.

Consider B16, for which the enrichment score was inactive: 0.64.

For the molecule B17, the enrichment score is inactive: 0.902.

As for B18, the enrichment score was inactive: 0.691.

Consider B19, for which the enrichment score was inactive: 0.561.

In the next assay the target is SHP2 N-SH2 domain T42A. Described as above. The following applies: peptide library: pTyr-Var.
On to B1, for which the enrichment score is inactive: 0.627.

With B2, the enrichment score was inactive: 0.591.

Regarding B3, the enrichment score was inactive: 0.256.

Consider B4, for which the enrichment score was inactive: 0.571.

As to B5, the enrichment score was inactive: 0.476.

As for B6, the enrichment score was inactive: 0.635.

In the case of B7, the enrichment score is inactive: 0.823.

B8: the enrichment score is inactive: 1.5.

B9: the enrichment score was inactive: 0.794.

As for B10, the enrichment score is inactive: 1.51.

For the molecule B11, the enrichment score is inactive: 2.31.

In the case of B12, the enrichment score was inactive: 0.667.

For B13, the enrichment score was inactive: 0.556.

Consider B14, for which the enrichment score was inactive: 0.663.

For the molecule B15, the enrichment score is inactive: 0.789.

On to B16, for which the enrichment score was inactive: 0.575.

Regarding B17, the enrichment score is inactive: 0.541.

For B18, the enrichment score is inactive: 0.78.

Regarding B19, the enrichment score was inactive: 0.745.

Another assay addresses SHP2 N-SH2 domain T52S. The description is as above. The following applies: peptide library: pTyr-Var.
On to B1, for which the enrichment score is inactive: 0.693.

Regarding B2, the enrichment score is inactive: 0.779.

In the case of B3, the enrichment score is inactive: 0.408.

Consider B4, for which the enrichment score is inactive: 0.659.

B5: the enrichment score is inactive: 0.402.

As for B6, the enrichment score was inactive: 0.483.

In the case of B7, the enrichment score was inactive: 1.12.

With B8, the enrichment score is inactive: 1.45.

Turning to B9, the enrichment score is inactive: 0.974.

Take B10: the enrichment score was inactive: 1.45.

Take B11: the enrichment score is inactive: 2.25.

With B12, the enrichment score was inactive: 0.603.

In the case of B13, the enrichment score was inactive: 0.559.

Regarding B14, the enrichment score was inactive: 0.857.

Take B15: the enrichment score was inactive: 0.919.

As for B16, the enrichment score is inactive: 0.739.

For the molecule B17, the enrichment score was inactive: 0.562.

For B18, the enrichment score was inactive: 0.676.

On to B19, for which the enrichment score is inactive: 0.68.

The target in another assay is SHP2 N-SH2 domain wild-type. The assay is described as above. The note with it: peptide library: pTyr-Var.
Take B1: the enrichment score is inactive: 0.861.

Take B2: the enrichment score was inactive: 0.702.

Take B3: the enrichment score was inactive: 0.301.

For the molecule B4, the enrichment score was inactive: 0.827.

B5: the enrichment score is inactive: 0.736.

Take B6: the enrichment score is inactive: 0.408.

Take B7: the enrichment score was inactive: 1.19.

As to B8, the enrichment score is inactive: 0.731.

Consider B9, for which the enrichment score is inactive: 1.02.

With B10, the enrichment score is inactive: 1.68.

With B11, the enrichment score was inactive: 2.22.

Take B12: the enrichment score is inactive: 0.77.

Take B13: the enrichment score was inactive: 0.546.

Turning to B14, the enrichment score was inactive: 1.12.

Consider B15, for which the enrichment score was inactive: 1.19.

On to B16, for which the enrichment score was inactive: 0.965.

Take B17: the enrichment score is inactive: 0.594.

On to B18, for which the enrichment score was inactive: 0.713.

For the molecule B19, the enrichment score was inactive: 0.589.
